Reference: the supplement of paper PMC11417369
Some of the results follow.

Each sequence was assayed on PfHDP1 homeodomain (GST-tagged) (assay: gcPBM binding intensity (ln(normalized median fluorescence intensity)); higher = stronger DNA binding).
How it was run: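 Using an Agilent 4 × 180k array, primer-extended double-stranded 36-bp intergenic genomic probes and negative controls were exposed for 1 h to GST-fused P. falciparum DNA-binding domains expressed in E. coli. Binding was carried out in 1× PBS with 1% milk, 0.2 mg/ml BSA, 0.5% salmon testes DNA and 0.03% Triton X-100, and protein was detected with Alexa488 anti-GST antibody and a 488 nm scan. Binding intensity is the highest Masliner-normalised natural-log median intensity across replicate spots of either probe orientation.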

Sequence | gcPBM binding intensity (ln)
CTTTTTTTTTTTTTTACACACCCAAATCACATACAT [CACACA_site4051] | 6.93
ATATATATATTTATATGTACGAAATATAAAAAAAAA [XGTACX_site5054] | 7.18
TATATATATATGTGTACACAATTTATCTGTATTTAT [CACACA_site5945] | 8.86
AAAAAAAAAAAAATACGTACATACATACCTACATAT [XGTACX_site233] | 6.34
AAGAAAAACTTTACGTGTACCAAACATCCTGCCAAC [XGTACX_site598] | 6.89
AGTGATACTAATTTTTGTACGCATAAAAGAATATTC [XGTACX_site6055] | 6.76
TATATTGATGATGATAGTACGTATGATTAGAAAAAA [XGTACX_site8989] | 6.58
ATAGACAGCGCACAAACACACAAACACCCACCCACA [CACACA_site8043] | 7.63
CATTAATAAAAAAAAAGTACAAAAAATATATATATT [XGTACX_site2091] | 6.88
AAAATAAAAATATTCACACATACAAAAATTATACAA [CACACA_site5136] | 6.48
ATAATATATATATATAGTACATATATATAATATTCT [XGTACX_site2445] | 6.2
ATTTTTTTACTGTAACCATATTTTTCCCTTTTATTC [CACACA_negctrl_site1143] | 6.81
TTTTTTTTTTTTTTTTGTACGTATCAAAAAATTTGT [XGTACX_site1023] | 6.28
AATCAATAAATAAAAACATGCATATATATATATATA [TGCATGCA_site438] | 9.42
AAAAATAAATTTAGTTGTACTTTATTATTTTAAATA [XGTACX_site3067] | 5.98
AAGACTTCTCCATATACACACACCAACAAATATAAA [CACACA_site2779] | 6.87
GTTTATTCATCATACGGTACACATAAATAATATATA [XGTACX_site6931] | 6.85
GTGCATATACAAATATGTACTTAAACGTTTTTTTTT [XGTACX_site7362] | 6.67
TTTTTCTTTTGATGTTGTACATATATATCATATAAT [XGTACX_site1189] | 6.5
TTCGTTTAAATCAAGTGTACATATTATATATAATAT [XGTACX_site7599] | 6.47
ATTTTTTTTTTTTTTTTTTGGTTTTCTTTAGGAGTT [CACACA_negctrl_site1258] | 5.85
GATGAATAAATCAAAGCACACATACACCCACATATA [CACACA_site7986] | 6.98

Sequence | gcPBM binding intensity (ln)
GAAATAAGTTAAAATAGTACGTAGTGTTCCTTAAGT [XGTACX_site6557] | 6.3
CGTTATATATGTATTACATGCAATATATGTACGTAA [TGCATGCA_site274] | 6.44
TAAATAATATCCCTTTGTACGTATTTTTTTTTATTA [XGTACX_site7303] | 6.51
TTAAAAATAATATATTGTACACATACTTATTTTAAT [XGTACX_site1348] | 6.47
TTAGGAAAACAAAAATGTACGCATATATATTATTGA [XGTACX_site8288] | 6.18
TTAATAAAAGCCCATGCACACCTTAGAAAGTTTTAT [CACACA_site8003] | 8.26
TGAGCTTCAACAATATGTACATAAAATATATTACAT [XGTACX_site4763] | 6.41
GTATTATAGTATAATACACACCCAAATATTAAAAAG [CACACA_site7404] | 7.16
TTTCTTAAAATGTTATGTACATATTTCGTTTCAAAG [XGTACX_site6102] | 6.32
TCTTTTTAATTTATATGTACTTATATTAATTATAAG [XGTACX_site7524] | 6.31
ATATATTTCAAAGGGGTGCAGGCATATTTAAGCAAA | 6.8
TGCTTTATTATTTATTGTACATGTAAAATGAGAGAG [XGTACX_site2288] | 6.81
TTTGTTTAAATTAAATGTACATAAAGAATAATATAT [XGTACX_site5093] | 6.84
TAATAACTACAAAAAAAAAAGAAAAATAGAAAAAGG [CACACA_negctrl_site1102] | 6.44
TCGTGTTAAACTTTTACACACAAACTTGCAATAATT [CACACA_site7745] | 7.73
AATTATATGAAATAAACACACATATGTAATATTACA [CACACA_site1928] | 6.49
AAAACATTGTTGAACTGTTTTATTTATAAATATAAG [XGTACX_negctrl_site393] | 6.38
ATATATATACTGTGTACACACATATGTATTTATATA [CACACA_site4600] | 7.1
GGAAAATTATCAATAGCATGCAAAATGTGAATATTA [TGCATGCA_site901] | 7.04
TATATTTGTACATGATATTTTTTTTTTCTTTTAAAA [CACACA_negctrl_site754] | 6.25
TGTATTTAGAAACATACACACATATTAAGTTTACAT [CACACA_site5689] | 6.38
ATATATCTGTATGGCACACACGGATAAATATATATA [CACACA_site4668] | 6.67

Sequence | gcPBM binding intensity (ln)
AGAATAATACAAAAATGTACATTAATAAAAAGATAG [XGTACX_site780] | 7.28
GCCAAAATATAATTTACACACTTATTAAATAATTAT [CACACA_site236] | 6.47
TTTCCTCATTTTATCATACACACTTATTTATATGTG [CACACA_site900] | 6.75
TTATTATTTCTTAGTAGTACTATATAATTTTTTTTT [XGTACX_site1847] | 6.4
ATAGTATCTGGTAGCTGTACGAGTCGTAGAGAGTAG [XGTACX_site2546] | 6.89
CATAATACAGATAACACACACAATTATACATAAAAT [CACACA_site5742] | 6.65
TATATTTAGATATATACACACATTAGCATTTTCATA [CACACA_site6902] | 6.63
CTAATGATCATATATACACACACACTAATAAAAAAA [CACACA_site9329] | 7.16
AAAGAATTTGCATATACACACAAAAAGATATATACA [CACACA_site6318] | 6.99
GTCTTAAAAATTAAAACACACGTTCACTTTCATATT [CACACA_site5803] | 6.85
ATAATGTAAAAGTAAACACACACATATATATATACA [CACACA_site8793] | 6.74
ATTTCTACTAAAAATACACACGATGATACAACGAAG [CACACA_site1755] | 6.85
TATATATATATATAATGTACATATATATAATATACA [XGTACX_site1552] | 9.04
AATTAATAACAAAATAAACACACATATATAAATACA [CACACA_site8456] | 6.87
GACCAATTCAAATATGCACACAAATTTGAAAACGAT [CACACA_site9202] | 9.85
AGATTATAAAATTCTACACACATATATACATATATA [CACACA_site3485] | 6.27
ATATAAAAAAAAAAAAGTACACATAAACAAATGCAT [XGTACX_site4241] | 6.71
AATAAAAAGACATTCACACATATATATTATTTATAT [CACACA_site5936] | 6.5
AATATATAGAAACACACACACAAAAAAAAAAAAAAA [CACACA_site1326] | 6.47
TTTCACTTTTTCCAAAGTACATATATAAAAATTAAT [XGTACX_site6947] | 6.44
TTTTAATAAATATACACACACAAAAAAAAAAAAAAA [CACACA_site3971] | 6.28
ATATGTAGAAGTAATGCACACATATGTATATATATA [CACACA_site8796] | 10.3

Sequence | gcPBM binding intensity (ln)
TTAAAATATAATATTCGTACTTATTCAAAAGAAAAA [XGTACX_site2122] | 6.02
GTATGTATATATATATGTACATACTGTTTATCGTTA [XGTACX_site6168] | 6.4
AAAAAAACATAACAAAATGAAACAAAACAAAAAGAA [GTGCAC_negctrl_site577] | 7.19
AGTTATTAAAAATGTGCATGCAATGGTTTCTCTTAA [TGCATGCA_site634] | 8.11
AAAAAAAAAAAAAAAGCACACATCATATTATAATTC [CACACA_site3355] | 6.66
AGGAGGTCAGTTCACAGTACCCAGAAACTCTACGAG [XGTACX_site2006] | 5.8
TCTTTTTTTTCTTTTTTTTTATTTAAATATCAAGTA [CACACA_negctrl_site1354] | 6.14
ATTTATAATGATTTTTTTAGTAATCTTGTTATTTTT [XGTACX_negctrl_site373] | 5.99
TTATATGGCTCCATTTGTACGCATCCATGTTTTTAT [XGTACX_site6590] | 6.91
CATACATATACATACAGTACATATTTTTTGTCAATT [XGTACX_site7357] | 6.51
GTATATATTTTTATTTAATAATTTGTTTATTTATTC [CACACA_negctrl_site647] | 6.57
AACGAAAACACTACGTGTACCAAACGTCCTACTAAC [XGTACX_site4915] | 6.22
TATACATACAGACCCACACACAAAAAAAAAAAAAAA [CACACA_site6536] | 6.44
ATATTATTTTAAAGTACACACATATATTAATATATA [CACACA_site2315] | 6.75
ATATATATATATATATGTACATATATATATGTATAT [XGTACX_site3959] | 9.22
ATGTATTAAAAAAATTGTACTATAAAATGTAACCGC [XGTACX_site8083] | 6.51
ATAATATATATATATGCATGTACATATTTATCTTTA [TGCATGCA_site32] | 6.74
AAGGCAAGCACTTAAACATGCATATAATAATATCAT [TGCATGCA_site698] | 6.35
AAAAAAAAAAAAAACATACACACAAATATATACATA [CACACA_site4010] | 6.54
TATCCCTTAGAATACACACCCATATGAGTGTGAACT [CACACA_site7398] | 6.55
TGTTTTGTTTTTTGGGGTACATGTTTTGTATTATAT [XGTACX_site7997] | 7.94
ATATCTTATGTTATCACACACACACGCACAAAACAG [CACACA_site6800] | 7.65
